The values below come from EP4763865A1 (Minghui Pharmaceutical (Hangzhou) Limited, dated 2026).

The target in assay [1] is T1, human c-MET on Hs746T human gastric cancer cells (human, UniProt P08581). Put plainly: cell-based or functional assay.
Assay [2] addresses T1, human c-MET on Hs746T human gastric …. Kind of assay: flow cytometry on Hs746T cells, 4-parameter fit. On the technique in general: Flow cytometry measures light scatter and fluorescence of single cells or particles in a stream.
In assay [3] the target is T2, Mouse c-MET Protein, His Tag (Sino Biological, Cat. No. 50622-M08H) (mouse, UniProt P16056 25-929).
T2 construct: not shown: His tag
Kind of assay: ELISA, coated antigen. (In general: In an ELISA, binding on a coated surface is turned into a signal by an enzyme label.)

Assay [4] addresses T3, Rat c-MET Protein, hFc Tag (Sino Biological, Cat. No. 80004-R02H) (rat, UniProt P97523 25-935).
T3 construct: not shown: hFc tag
Kind of assay: ELISA, coated antigen, anti-camelid VHH HRP detection.

The target in assay [5] is T1, human c-MET on Hs746T human gastric …. Kind of assay: flow cytometry on Hs746T cells, PE secondary antibody, 4-parameter fit.
For assay [6] the target is unchanged. Kind of assay: cell-based or functional assay. The source holds these as a separate data set.
Assay [7] has the same target. Put plainly: flow cytometry on Hs746T cells, 4-parameter fit. This is another data set of the same source.
The target of assay [8] is T4, Human c-MET, His Tag (Sino Biological, Cat. No. 10692-H08H) (human, UniProt P08581 25-932).
T4 construct: also called human c-MET antigen; not shown: His tag
Put plainly: ELISA, coated human c-MET His Tag, 4-parameter fit.

A word on the EC50: it is the midpoint of the concentration-response curve. The low end stands for greater potency, the high end for weaker potency.

Like-named read-outs stand apart in the source and are kept apart here.

B1: MHAB07-3-1 (Fc fusion)
chain: QLQLVESGGGLVQPGGSLRLSCAASGRITNTYVMGWVRQAPGKEREFQAAITWTVGSTYYVDSVKGRFTISRDNAKNTLYLQMNSLRPEDTAVYYCAASRFSAWPPRGTLGEWNSWGQGTQVTVSS[human IgG1 Fc with changes not shown]
Take B1: in assay [1], the “Fab-ZAP endocytosis-mediated cell killing, Bottom (killing rate %)” value stood at 9.62%; the “Fab-ZAP endocytosis-mediated cell killing, EC50” value was 1.95 pM; the “Fab-ZAP endocytosis-mediated cell killing, Top (killing rate %)” value was 94.4%. Also, in assay [2], the Bottom is 2330 MFI, the EC50 was determined as 0.0777 µg/mL and the Top amounted to 165000 MFI.

B2: MHAB07-3-2 (Fc fusion)
chain: QLQLVESGGGLVQPGGSLRLSCAASGRITNTYVMGWVRQAPGKEREFVAAITWTVGSTYYVDSVKGRFTISRDNAKNTLYLQMNSLRPEDTAVYYCAASRFSAWPPRGTLGEWNSWGQGTQVTVSS[human IgG1 Fc with changes not shown]
With B2, the binding result in assay [3] is on record as “no binding (tested: initial concentration 10 µg/mL)”. In addition, in assay [1], the “Fab-ZAP endocytosis-mediated cell killing, Bottom (killing rate %)” value was 16.2%; the “Fab-ZAP endocytosis-mediated cell killing, EC50” value was found to be 2.63 pM; the “Fab-ZAP endocytosis-mediated cell killing, Top (killing rate %)” value was determined as 95.9%. In assay [2], this molecule came in with a Bottom of 1760 MFI, a 50% effective concentration (EC50) of 0.0829 µg/mL and a Top of 158000 MFI. In assay [4], the binding result is reported as “no binding (tested: initial concentration 10 µg/mL)”. Besides, the EC50 in assay [5] amounted to 0.0642 µg/mL.

B3: MHAB07-3 (Fc fusion)
chain: QLQLVESGGGLVQAGGSLRLSCAASGRITNTYVMGWFRQAPGKERELQAAITWTVGSTYYVDSVKGRFTISRDNAKNTLYLQMNSLKPEDTAVYYCAASRFSAWPPRGTLGEWNSWGQGTQVTVSS[human IgG1 Fc with changes not shown]
notes: also called MHAB07-03
Take B3: the “Fab-ZAP endocytosis-mediated cell killing, EC50” value in assay [6] is approximately 17.4 pM. In addition, in assay [1], the “Fab-ZAP endocytosis-mediated cell killing, Bottom (killing rate %)” value is 8.79%; the “Fab-ZAP endocytosis-mediated cell killing, EC50” value worked out at 2.5 pM; the “Fab-ZAP endocytosis-mediated cell killing, Top (killing rate %)” value stood at 93.8%. Moreover, the half-maximal effective concentration (EC50) in assay [7] stood at 41.2 µg/mL. Also, in assay [2], the Bottom was found to be 2170 MFI; the midpoint of the response, the EC50, lay at 0.0623 µg/mL; the Top came to 173000 MFI. For the same molecule, the midpoint of the response in assay [8], the EC50, lay at 0.000789 µg/mL. The same molecule yielded an EC50 in assay [5] of 0.0722 µg/mL.
